These results are taken from the antibiotic and cytotoxicity screens of Wong et al. (2023).

Each structure is given as a SMILES string. This is one part of the list.

The assay has as its system HepG2. Briefly: cytotoxicity call (relative viability < 0.9). The settings on record: 10 µM.
Turning to `CC(C)NC(=O)N[C@@H]1C=C[C@H](CC(=O)NCCCN(C)C)O[C@@H]1CO`, the cytotoxicity call is “inactive”. As for `C[C@H](O)C#Cc1ccc2c(c1)O[C@H](CN(C)C)[C@H](C)CN([C@@H](C)CO)S2(=O)=O`, the entry is “inactive”.

On to `NC(=O)c1ccc(CN2CCOCC2)cc1`, for which the cytotoxicity call is “inactive”. With `O=C(O)C[C@@H](C(=O)O)[C@H](O)c1ccccc1`, the cytotoxicity call is “inactive”.

Take `Cc1noc(C)c1NC(=O)N[C@H]1CC[C@H](CC(=O)N2CCN(C)CC2)O[C@H]1CO`: the cytotoxicity call was “inactive”. For the molecule `C[C@@H]1CN([C@H](C)CO)C(=O)c2c(c3ccccc3n2C)-c2ccccc2CO[C@H]1CN(C)Cc1ccccc1`, the cytotoxicity call is “active”. With `COCC(=O)N1[C@H](C(=O)N2CCN(C)CC2)[C@@H](CO)[C@@H]2Cn3c(ccc(C4=CCCCC4)c3=O)[C@@H]21`, the cytotoxicity call was “inactive”. With `Cc1noc(C)c1NC(=O)Nc1ccc2c(c1)C(=O)N([C@H](C)CO)C[C@H](C)[C@H](CN(C)S(=O)(=O)c1cn(C)cn1)O2`, the cytotoxicity call was “inactive”. As for `CO[C@H]1CN(C)C(=O)c2cc(NC(=O)c3ccccc3)ccc2OC[C@H](C)N(C(=O)CN(C)C)C[C@@H]1C`, the entry is “inactive”; as for `C[C@@H]1CN([C@@H](C)CO)S(=O)(=O)c2ccc(-c3ccncc3)cc2O[C@H]1CN(C)Cc1ccc(Oc2ccccc2)cc1`, “active”; as for `O=C(O)COc1nn(Cc2ccccc2)c2ccccc12`, “inactive”. As for `CC(C)NC(=O)Nc1ccc2c(c1)C(=O)N([C@H](C)CO)C[C@@H](C)[C@H](CN(C)S(C)(=O)=O)OCCCC[C@H](C)O2`, the entry is “inactive”; as for `COc1cccc(NC(=O)C[C@H]2CC[C@@H]3[C@@H](COc4ccc(NC(=O)C5CCOCC5)cc4C(=O)N3C)O2)c1`, “inactive”.
